One experiment has as its target Vpu ion channel (Human immunodeficiency virus type 1 group M subtype B, UniProt P05919). As to conditions: for Results (Compounds Inhibiting the Vpu Ion Channel in Bilayers): drug 100 μM in CIS and TRANS chambers, Vpu N-terminal peptide (residues 1-32), number of experiments x category.
The target of a further experiment is MHV E protein (Murine coronavirus, UniProt P0C2R0). As to conditions: halo of growth score; E. coli expressing E protein at 37° C.
For the next experiment, the target named is HCV p7 protein (Hepatitis C virus genotype 1a, UniProt P27958, L790F). As to conditions: halo of growth score; E. coli expressing p7 at 37° C.
Experiment [1] deals with MHV E protein ion channel (Murine coronavirus, UniProt P0C2R0). Briefly: MHV E protein ion channel in planar lipid bilayers. Type of experiment: biochemical, Murine hepatitis virus. As to conditions: 100 μM added to the cis chamber; FIG. 12.
The target of another experiment is P7 peptide channels (Hepatitis C virus genotype 1a, UniProt P27958, L790F).

Regarding `N=C(NC(=O)CCc1ccccc1)Nc1ccccc1` [N-(3-phenylpropanoyl)-N′-phenylguanidine], on Vpu ion channel, the “Results (Compounds Inhibiting the Vpu Ion Channel in Bilayers)” value is 1x strong blocks. The “MHV E protein Inhibition (score)” value at MHV E protein is 0.8 score. The “HCV p7 protein Inhibition (score/# of times tested)” value (from here on “HCV p7 protein Inhibition”) at HCV p7 protein is given as 2.0/1 score.

With `NC(N)=NC(=O)/C=C/C=C/c1ccccc1` [(5-Phenyl-penta-2,4-dienoyl)guanidine], the “Results (Compounds Inhibiting the Vpu Ion Channel in Bilayers)” value on Vpu ion channel was 6x strong block. Also, on MHV E protein, the “MHV E protein Inhibition (score)” value was determined as 1.4 score. Further, the “HCV p7 protein Inhibition” value at HCV p7 protein is 2.13/1 score.

As for `NC(N)=NC(=O)/C=C/c1ccccc1` [cinnamoylguanidine], the “current flow through the MHV E ion channel (in words)” value in experiment [1] is listed as “greatly reduced current flow”. The “Results (Compounds Inhibiting the Vpu Ion Channel in Bilayers)” value at Vpu ion channel is reported as 3x weak block. For the same molecule, the “MHV E protein Inhibition (score)” value on MHV E protein is 1.1 score. The “HCV p7 protein Inhibition” value at HCV p7 protein is 1.00/1 score.

Take `N=C(N)NC(=O)/C=C/c1cccc(Br)c1` [(3-Bromocinnamoyl)guanidine]: the “Results (Compounds Inhibiting the Vpu Ion Channel in Bilayers)” value at Vpu ion channel is given as 3x partial-strong block. Further, the “MHV E protein Inhibition (score)” value on MHV E protein turned out to be 2.4 score. The “HCV p7 protein Inhibition” value on HCV p7 protein was 2.92/3 score.

With `N=C(N)NC(=O)c1ccc(-c2ccccc2)cc1` [4-phenylbenzoylguanidine], the “Results (Compounds Inhibiting the Vpu Ion Channel in Bilayers)” value at Vpu ion channel is recorded as 3x strong block. In addition, the “MHV E protein Inhibition (score)” value at MHV E protein stood at 1.8 score. Moreover, the “HCV p7 protein Inhibition” value at HCV p7 protein is listed as 2.19/2 score.

Consider `N=C(N)NC(=O)/C=C/c1ccccc1Cl` [(2-Chlorocinnamoyl)guanidine], for which, at Vpu ion channel, the “Results (Compounds Inhibiting the Vpu Ion Channel in Bilayers)” value was 4x strong; 2x partial blocks. For the same molecule, the “MHV E protein Inhibition (score)” value on MHV E protein is on record as 0.7 score. On HCV p7 protein, the “HCV p7 protein Inhibition” value was 3.31/6 score.

On to `NC(N)=NC(=O)c1ccc2ccccc2c1` [2-napthoylguanidine], for which, at Vpu ion channel, the “Results (Compounds Inhibiting the Vpu Ion Channel in Bilayers)” value worked out at 7x weak block. Further, on MHV E protein, the “MHV E protein Inhibition (score)” value stood at 0.6 score. For the same molecule, at HCV p7 protein, the “HCV p7 protein Inhibition” value is 1.0/3 score.

Turning to `COc1ccc2cc(C(=O)NC(=N)N)ccc2c1` [6-methoxy-2-naphthoylguanidine], the “Results (Compounds Inhibiting the Vpu Ion Channel in Bilayers)” value at Vpu ion channel stood at 5x strong block. In addition, the “MHV E protein Inhibition (score)” value on MHV E protein is recorded as 1.8 score. Moreover, the “HCV p7 protein Inhibition” value on HCV p7 protein is recorded as 3.33/3 score.

On to `CC(C)(C)Nc1nc(N)c(C(=O)N=C(N)N)nc1Cl` [5-tert-butylamino-amiloride], for which, on Vpu ion channel, the “Results (Compounds Inhibiting the Vpu Ion Channel in Bilayers)” value came out at 3x partial block. Also, at MHV E protein, the “MHV E protein Inhibition (score)” value was determined as 0.1 score. The “HCV p7 protein Inhibition” value on HCV p7 protein is on record as 1.88/1 score.

Consider `NC(N)=NC(=O)c1nc(Cl)c(N2CCCCCC2)nc1N` [5-(N,N-hexamethylene)amiloride], for which the “P7 channel activity (in words)” value on P7 peptide channels (100 μM HMA, 4 experiments) is recorded as “Block of channel activity”. The “P7 sodium channels (500/50) (in words)” value on P7 peptide channels (500 μM HMA, 2 experiments) is recorded as “blocked”. Further, the “P7 channel activity after addition of HMA (in words)” value at P7 peptide channels (2 μl of 50 μM HMA to the cis chamber) is “disappearance of the channel activity”. For the same molecule, the “channels formed by the P7 peptide (in words)” value on P7 peptide channels (bilayers) is “blocked”. Moreover, at Vpu ion channel (bilayers), the “concentration at which the Vpu channel is blocked (as low as)” value worked out at 25 µM. The “Results (Compounds Inhibiting the Vpu Ion Channel in Bilayers)” value at Vpu ion channel was 1x Strong block;. The “MHV E protein Inhibition (score)” value on MHV E protein is 1.1 score. Besides, on HCV p7 protein, the “HCV p7 protein Inhibition” value is given as 1.28/4 score.

In the case of `O=C(CCc1ccccc1)NC(=Nc1ccccc1)NC(=O)CCc1ccccc1` [N,N′-bis(3phenylpropanoyl)-N″-phenylguanidine], at Vpu ion channel, the “Results (Compounds Inhibiting the Vpu Ion Channel in Bilayers)” value was 7x weak block. For the same molecule, the “MHV E protein Inhibition (score)” value at MHV E protein turned out to be 0.8 score. Besides, the “HCV p7 protein Inhibition” value at HCV p7 protein is on record as 2.0/1 score.

Regarding `N=C(N)NC(=O)/C=C/c1cccc(Cl)c1` [(3-Chlorocinnamoyl)guanidine], the “Results (Compounds Inhibiting the Vpu Ion Channel in Bilayers)” value on Vpu ion channel is recorded as 2x strong block; 2x partial. Moreover, on MHV E protein, the “MHV E protein Inhibition (score)” value worked out at 0.4 score. Further, on HCV p7 protein, the “HCV p7 protein Inhibition” value was 2.75/3 score.

For the molecule `N=C(N)NC(=O)/C=C/c1cccc(C(F)(F)F)c1` [3-(trifluoromethyl)cinnamoylguanidine], the “Results (Compounds Inhibiting the Vpu Ion Channel in Bilayers)” value on Vpu ion channel was 4x strong blocks; 1x no effect. Besides, the “MHV E protein Inhibition (score)” value on MHV E protein is given as 2.9 score. On HCV p7 protein, the “HCV p7 protein Inhibition” value is given as 3.34/3 score.
